The other results are listed elsewhere or left out.

The test system of this experiment is S. aureus RN4220. As to the kind of experiment: growth inhibition call (relative growth <= 0.2). To be noted: 50 µM.
For `Cc1noc(C)c1S(=O)(=O)Nc1ccc2c(c1)C(=O)N([C@@H](C)CO)C[C@H](C)[C@H](CN(C)S(C)(=O)=O)O2`, the growth inhibition call is “inactive”.

Consider `O=C(C[C@@H]1CC[C@H]2[C@@H](COC[C@@H](O)CN2S(=O)(=O)c2cccc(Cl)c2)O1)NC1Cc2ccccc2C1`, for which the growth inhibition call was “inactive”.

Consider `Cc1noc(C)c1NC(=O)N(C)C[C@@H]1OCCCC[C@H](C)Oc2ccc(NC(=O)Cc3ccccc3)cc2C(=O)N([C@@H](C)CO)C[C@@H]1C`, for which the growth inhibition call is “inactive”.

In the case of `C[C@@](Cc1ccc(O)c(O)c1)(NN)C(=O)O`, the growth inhibition call was “inactive”.

For the molecule `O=C(O)CCCCCCCCCCCCC1C=CCC1` (configuration not stated), the growth inhibition call was “inactive”.

For the molecule `Cc1noc(C)c1S(=O)(=O)N(C)C[C@@H]1Oc2ccc(NS(C)(=O)=O)cc2C(=O)N([C@H](C)CO)C[C@@H]1C`, the growth inhibition call is “inactive”.

As to `Cc1noc(C)c1NC(=O)Nc1ccc2c(c1)C(=O)N([C@H](C)CO)C[C@@H](C)[C@@H](CN(C)Cc1ccc(Cl)c(Cl)c1)OCCCC[C@H](C)O2`, the growth inhibition call is “inactive”.

With `C[C@H]1CN([C@@H](C)CO)S(=O)(=O)c2ccc(-c3cccc(C#N)c3)cc2O[C@H]1CN(C)C(=O)c1ccncc1`, the growth inhibition call is “inactive”.

In the case of `Cc1noc(C)c1NC(=O)Nc1cccc2c1O[C@@H](CN(C)S(C)(=O)=O)[C@@H](C)CN([C@H](C)CO)C2=O`, the growth inhibition call is “inactive”.

In the case of `Cc1noc(C)c1S(=O)(=O)Nc1ccc2c(c1)CC(=O)N([C@H](C)CO)C[C@H](C)[C@H](CN(C)CC1CC1)O2`, the growth inhibition call is “inactive”.

`C[C@@H]1CN([C@H](C)CO)S(=O)(=O)c2ccc(C#Cc3ccccn3)cc2O[C@@H]1CN(C)Cc1ccccc1`: the growth inhibition call was “inactive”.

For `C[C@H]1CN([C@@H](C)CO)C(=O)c2cc(NC(=O)CCN3CCOCC3)ccc2O[C@@H]1CN(C)S(=O)(=O)c1ccc(Cl)cc1`, the growth inhibition call was “inactive”.

(Values after the antibiotic and cytotoxicity screens of Wong et al. (2023).)
